Data taken from the supplement of paper PMC11417369.
± gives the standard deviation of the averaged measurements. The list shows a part of the results.

System: PfAP2-G AP2 domain (GST-tagged)
Assay: gcPBM binding intensity (ln(normalized median fluorescence intensity)); higher = stronger DNA binding
Procedure, shortened: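 The binding buffer was 1× PBS containing 1% milk, 0.2 mg/ml BSA, 0.5% salmon testes DNA and 0.03% Triton X-100. In it, GST-tagged P. falciparum DNA-binding domains expressed in E. coli were applied for 1 h to an Agilent 4 × 180k array of primer-extended double-stranded 36-bp intergenic genomic probes plus negative controls. Binding intensity, read with Alexa488 anti-GST antibody and a 488 nm scan, is the highest Masliner-normalised natural-log median intensity across replicate spots of either probe orientation.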

Going from “TTGTTCATCTTTTTTTTTTTTTTTTTTTTTTAAATC [CACACA_negctrl_site191]” to “AAGATTAAACATTGCACACAGAAATATATTTTCTAT [CACACA_site2374]”, the “gcPBM binding intensity (ln)” value rises from 9.58 ± 0.085 to 9.91 ± 0.099.

First: TTTATAATATGTTATACATGCAGGTACCTTTTTGTA [TGCATGCA_site746]
Second: TGAACTCATAGGAAAACACACATATGTGCAATATAT [CACACA_site6231]
The “gcPBM binding intensity (ln)” value of the first is higher: 10.7 ± 0.52 for the first, 10.02 ± 0.078 for the second.

“ACAATGATAGTGTAAAGTACATATATATAAAAAAAT [XGTACX_site5928]” and “TGTTATTATTAAGACACACACACAAAAAAAAAAAAA [CACACA_site1481]” are within error of each other in “gcPBM binding intensity (ln)” value: 11.2 ± 0.7 for the first, 10.1 ± 0.42 for the second.

“ATTTATAATTTTTGAGCACACACAAGCATATATATA [CACACA_site8531]” and “CTATACTATGAAAAGTGTACGAATAGCTAGCTATTT [XGTACX_site5927]” are within error of each other in “gcPBM binding intensity (ln)” value: 10.2 ± 0.13 for the first, 11 ± 0.71 for the second.

“TAGTAGTATTCATCCAGTACATATAAATGTATAATA [XGTACX_site7552]” and “GAGCATTACACATATACACACATATAAATAAACATA [CACACA_site7315]” are within error of each other in “gcPBM binding intensity (ln)” value: 10.8 ± 0.57 for the first, 10.1 ± 0.31 for the second.

Going from “ATATATTTTGGGGACTTTTTAAAAAAGAAGTATTAA [TGCATGCA_negctrl_site337]” to TTTTTGTTAATAAGTATGCACTATCTCATTTTTGTA, the “gcPBM binding intensity (ln)” value falls from 10.9 ± 0.53 to 10.04 ± 0.092.

Going from “TTTCTATTACGAACGTGTACATACATTATTCTTAAA [XGTACX_site5816]” to “TAGAAAAAAATAGATGCATGCAATGAATGAATAATA [TGCATGCA_site14]”, the “gcPBM binding intensity (ln)” value falls from 11.5 ± 0.86 to 9.91 ± 0.085.

Compared with “CTTTGCATTACGAACATACACACAGAATAACTGAAA [CACACA_site3024]”, “GAGAAATTTATACATACACACATATAAATATTATAG [CACACA_site7819]” is lower in “gcPBM binding intensity (ln)” value: 10.185 ± 0.007 for the first, 9.92 ± 0.042 for the second.

“AAAAAGAAAAAACTTACACACATATATACACCCATG [CACACA_site8079]” and “AATAATATATAAGAAAGTACAAAAAAATAAAATAAA [XGTACX_site3302]” are within error of each other in “gcPBM binding intensity (ln)” value: 10.4 ± 0.12 for the first, 11 ± 0.55 for the second.

First: TTTTAATGAAATATCAAAAAAATTTATGATTTCAAA [GTGCAC_negctrl_site662]
Second: TTTTTTTTTTTGTGTGCATGTGCTAGGAAAGGTAGG [TGCATGCA_site330]
The “gcPBM binding intensity (ln)” value of the first is lower: 9.4 ± 0.19 for the first, 10.5 ± 0.64 for the second.

Compared with “ATATCAAATAGACAAACACACAAAGGAAGAGTGAAA [CACACA_site3921]”, “TTCTTTTTTTTTTTTTTTTTTTTATAGTACAAAAAA [TGCATGCA_negctrl_site450]” is higher in “gcPBM binding intensity (ln)” value: 9.95 ± 0.057 for the first, 11 ± 0.86 for the second.

“ATCTATATTATTTCTACACACATATCTATAATATGT [CACACA_site7561]” and “AGAAGTTTATCTTTTAGTACGCATAAAAAAAAAAAA [XGTACX_site2359]” are within error of each other in “gcPBM binding intensity (ln)” value: 10.2 ± 0.21 for the first, 11.2 ± 0.95 for the second.

Going from “TATAAATAATTATATTGTACTCTTTATATTTTTCTT [XGTACX_site5335]” to “TTATATAAGGTCTATATATAAATATTAATGATAAGG [TGCATGCA_negctrl_site354]”, the “gcPBM binding intensity (ln)” value falls from 11.3 ± 0.71 to 10.2 ± 0.31.

“TTAAATAGCTGTAATTGTACAAATAAATACATAAAT [XGTACX_site3097]” and “TATAGTAATATTTGAAGTACAAAATTAAAATAAATA [XGTACX_site7634]” are within error of each other in “gcPBM binding intensity (ln)” value: 10.8 ± 0.45 for the first, 11.2 ± 0.69 for the second.

“TATATTATTTTTTATTGTACTTAAAAATATTATTTG [XGTACX_site1443]” and “TAAATATATATATGGTGTACCATTTTGGGTTAATAT [XGTACX_site2706]” are within error of each other in “gcPBM binding intensity (ln)” value: 11.4 ± 0.95 for the first, 11.1 ± 0.57 for the second.

“GGGAGGATATTTCACAGTACCCAGGAAATCTGCGGA [XGTACX_site2555]” and “TTAATATTTTGATGTGTACACATTAAAATAGTTTTA [CACACA_site5712]” are within error of each other in “gcPBM binding intensity (ln)” value: 11 ± 0.84 for the first, 11.8 ± 0.89 for the second.

Going from “ACAATTACTTATTTTAATTTTTTTAATCTATTGATT [CACACA_negctrl_site967]” to “AATAACAATTATAAAAGTACAGATTTTTATTTCTAA [XGTACX_site5746]”, the “gcPBM binding intensity (ln)” value rises from 9.65 ± 0.12 to 11.1 ± 0.79.

“TCCTTATTTTGCAGGAGTACCATTTTTTAAAAATAC [XGTACX_site5968]” and “TACTTTTCTTAAAGATGTACGTTTTAAAAATAAAAT [XGTACX_site14]” are the same in “gcPBM binding intensity (ln)” value: 11.4 ± 0.73 for the first, 11.4 ± 0.98 for the second.

Compared with “CAACAATTTCGTCATACACACATTCAGAATATATAT [CACACA_site2370]”, “TAAATACATAAAAATTGTACACATTGTTTTCTCTTT [XGTACX_site6435]” is higher in “gcPBM binding intensity (ln)” value: 10.27 ± 0.099 for the first, 11.3 ± 0.83 for the second.

“TTTTTTTTGTTATGAACATGCAAATTAAAATATAAT [TGCATGCA_site954]” and “AAGGAAATAATTAAATGTACAAAAAAAAAAAAAATT [XGTACX_site562]” are within error of each other in “gcPBM binding intensity (ln)” value: 10.1 ± 0.35 for the first, 10.7 ± 0.4 for the second.

Compared with “AAAATAAAAATTAACTGTACATACATTATTCAAATT [XGTACX_site6106]”, “ATATTTTTTTTTCTTTCGCACACGTGAAAGAATTTC [CACACA_site8636]” is lower in “gcPBM binding intensity (ln)” value: 11.2 ± 0.66 for the first, 10.2 ± 0.21 for the second.

Going from “TTTTATGCTCAATTATTAAGAAATACTTTTTCTTCC [XGTACX_negctrl_site208]” to “TTAAAAAAAATATAATGTACTTGTAGAATTATATTT [XGTACX_site6220]”, the “gcPBM binding intensity (ln)” value rises from 10.02 ± 0.042 to 11 ± 0.76.

First: TATATTTTTTATAAATGTACATGGATAGGCATAAAC [XGTACX_site8401]
Second: TCAAAAATGAGTTACACACACACATATATATATATA [CACACA_site2229]
The “gcPBM binding intensity (ln)” value of the first is higher: 11.2 ± 0.61 for the first, 10.2 ± 0.35 for the second.

Compared with “ATATGAATAAATAAAAGTACATACATAATGTATTAT [XGTACX_site5969]”, “TATAAAAAATAATTATCATGAAATATATGATCATCA [TGCATGCA_negctrl_site137]” is lower in “gcPBM binding intensity (ln)” value: 11.3 ± 0.69 for the first, 9.65 ± 0.071 for the second.

“ATTATTATTTATATGATACACACGTACATATACGCA [CACACA_site3823]” and “TAATAATAAAATATTTGTACATATAAAATATGGCTG [XGTACX_site7904]” are within error of each other in “gcPBM binding intensity (ln)” value: 11.5 ± 1.1 for the first, 10.9 ± 0.57 for the second.

Going from “AATATAATGCAATATACACACATATATTTCTCTTTT [CACACA_site7276]” to “AGTATATAAAATACTGTATCGATGGGGGAGGGCGCA [CACACA_negctrl_site1612]”, the “gcPBM binding intensity (ln)” value rises from 9.64 ± 0.19 to 11.4 ± 0.73.

“ACAAATAAATAAAAAACACACACAAATAAATAAATA [CACACA_site8708]” and “AATTTTTTTCTCCAAGTGCATTAGAACATTAACGTA [GTGCAC_site9413]” are within error of each other in “gcPBM binding intensity (ln)” value: 9.905 ± 0.049 for the first, 10.2 ± 0.26 for the second.

Going from “ATATATTTATGTATCACACACAAAAAAAAAAAATAA [CACACA_site255]” to “TATATATTAATAAATAGTACCCGTGGAATTTATATT [XGTACX_site5855]”, the “gcPBM binding intensity (ln)” value rises from 10.1 ± 0.29 to 11.1 ± 0.54.
